Assay results reported in ChEMBL document CHEMBL4888484, “Replenishing the malaria drug discovery pipeline: Screening and hit evaluation of the MMV Hit Generation Library 1 (HGL1) against asexual blood stage Plasmodium falciparum ,using a nano luciferase reporter read-out” (2022).
Hit rate of the full screen: of about 150,000 compounds, about 540 (0.36%) showed an effect of 50% or more. Some of the results follow.

The compounds below were run on Plasmodium falciparum (assay: Primary screen in NF54 nanoGlo assay, in single point, at 2uM, 72h; a lower Z score goes with more inhibition). Conditions: timepoint 72 hour.
Assay type: functional, Erythrocyte

Compound | % Inhibition | Z score
Cc1nn(C[C@H](O)COCc2ccccc2)cc1Br | -1% | 0.16
COc1cccc(CN(C)S(=O)(=O)Cc2ccc(C)cc2F)n1 | -10% | 1.92
CCC[C@H]1COCCN1C(=O)Nc1cc(N2CCCC2=O)ccc1C | -13% | 2.48
Cc1nc(CCCC(=O)N2CC3(CCC3)[C@@H]2C(C)C)cs1 | -10% | 2.01
Cn1cncc1COc1ccc(F)cc1 | 3% | -0.27
CCCC[C@@H](CC(=O)O)NC(=O)c1cc(F)ccc1F | -12% | 2.32
c1ccc(-n2ncc3c2-c2[nH]c4ccccc4c2CC3)cc1 | 4% | -0.77
Cc1cccc(Cn2nc(-c3ccncc3)nc2COC[C@H]2CCCO2)c1 | -4% | 0.73
CO[C@H]1CCN(c2cc3nncn3c(C)n2)CC1(C)C | -2% | 0.43
CC(C)CCN1C(=O)C2(CCN(C(=O)[C@H](C)n3cccn3)CC2)Nc2ccccc21 | 14% | -1.98
CC1CCC(C(N)=O)CN1c1nnc(-c2ccccn2)s1 (stereo not given) | -12% | 1.3
COc1ccc(C#CC(=O)NC[C@H]2CCCN(C(C)=O)C2)cc1 | -8% | 1.17
CNc1snc(C)c1C(=O)N1CCCC1 | -19% | 1.79
O=S(=O)(C1CC1)N1CC(CC(F)F)C1 | -17% | 1.94
CO[C@@]12CC[C@@H](Oc3ccccn3)C[C@@H]1N(C(=O)c1cccc(C#N)c1)CC2 | -10% | 0.94
CCOCCOc1ccc(Cl)cc1N | 2% | -0.34
CC1(C)CN(C(=O)c2ncn(C(C)(C)C)n2)[C@H]1C1CC1 | 30% | -3.34
COc1ccc(-c2nonc2NC(=O)c2nn(-c3ccc(C)cc3)ccc2=O)cc1OC | -4% | 0.71
Cc1cnn(CCN[C@@H](C)C(=O)N2CCCC2)c1 | -4% | 0.55
CC(C)(CO)CNC(=O)COc1ccccc1Br | 40% | -3.37
Cc1cc(C)cc(N2CC[C@H](NC(=O)NCc3ccco3)C2=O)c1 | -9% | 1.42
CCCc1cc(C(=O)NCCN2CC[C@H](c3ccccc3C)C2)[nH]n1 | -7% | 1.21
Cc1cc(NC(=O)c2cnns2)ccc1Oc1ccncc1 | -7% | 1.35
CC#CC(=O)N[C@@H](C)c1cc2cc(F)ccc2o1 | -8% | 0.84
CC(C)CC(=O)Nc1c(C2CC2)n[nH]c1-c1cccc(Cl)c1 | -2% | 0.17
